# From PubChem BioAssay AID488969 (Vanderbilt High Throughput Screening Facility, 2010)
# Whole data set: some 110,000 compounds, median “z-score” near -0.1, cut for the highest 2% near 2. This is one part of the list. The source made the active and inactive calls.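 Rule for the calls: active = z-score in the third read window above 3 or below -3; inactive = the rest.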
# Biological target: Metabotropic glutamate receptor 8 (Rattus norvegicus) (UniProt P70579)
# Test: rat mGluR8 modulators via GIRK flux, primary screen, cell-based, thallium flux, HTS (AID 488969)
# Settings: HEK293 rat mGluR8, GIRK (G protein-gated inwardly rectifying potassium channel) thallium flux, FluoZin2; at 10 µM; stronger effect = higher value; submaximal glutamate (EC20) added with thallium
# Chain of UniProt P70579 (P70579 whole entry, looked up): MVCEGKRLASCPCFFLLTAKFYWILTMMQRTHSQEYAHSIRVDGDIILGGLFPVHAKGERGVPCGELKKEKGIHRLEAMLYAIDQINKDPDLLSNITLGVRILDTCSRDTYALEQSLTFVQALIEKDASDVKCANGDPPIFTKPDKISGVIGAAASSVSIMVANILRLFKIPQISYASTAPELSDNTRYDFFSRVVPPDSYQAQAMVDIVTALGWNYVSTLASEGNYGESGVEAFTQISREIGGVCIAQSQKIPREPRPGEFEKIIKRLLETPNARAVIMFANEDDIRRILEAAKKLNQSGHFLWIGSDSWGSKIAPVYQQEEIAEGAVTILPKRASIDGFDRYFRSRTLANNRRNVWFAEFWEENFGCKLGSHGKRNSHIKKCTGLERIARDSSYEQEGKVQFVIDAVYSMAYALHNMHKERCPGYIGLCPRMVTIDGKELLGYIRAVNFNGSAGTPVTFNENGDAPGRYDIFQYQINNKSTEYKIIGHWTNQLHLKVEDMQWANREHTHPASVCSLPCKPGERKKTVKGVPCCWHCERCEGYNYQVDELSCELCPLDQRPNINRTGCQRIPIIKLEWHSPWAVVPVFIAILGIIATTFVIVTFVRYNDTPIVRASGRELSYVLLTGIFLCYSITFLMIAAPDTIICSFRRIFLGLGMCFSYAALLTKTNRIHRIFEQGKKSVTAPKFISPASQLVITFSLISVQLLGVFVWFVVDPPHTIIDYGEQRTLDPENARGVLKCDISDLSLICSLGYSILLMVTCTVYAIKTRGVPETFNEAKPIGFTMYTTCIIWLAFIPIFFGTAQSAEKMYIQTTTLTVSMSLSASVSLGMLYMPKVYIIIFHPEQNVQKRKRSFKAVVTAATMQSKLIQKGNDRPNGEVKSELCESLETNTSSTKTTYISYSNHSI
row,Structure (SMILES),z-score
1,CC(C)C(=O)Nc1cccc(S(=O)(=O)c2cccc(NC(=O)C(C)C)c2)c1,0.202
2,CCN(CC)c1ccc(NC(=O)COC(=O)c2ccc3ccccc3n2)cc1,-0.0565
3,O=C(NCc1ccccc1)c1cc2nc(C3CC3)cc(C(F)(F)F)n2n1,-0.331
4,Cc1c(Cl)cccc1NC(=O)CCC(=O)NNC(=O)c1ccccc1,-0.148
5,CCCCN(CC)C(=O)Cc1c(C(=O)O)[nH]c2ccc(Cl)cc12,-0.455
6,O=C(O)c1ccccc1NS(=O)(=O)c1cccc2cccnc12,0.764
7,COc1cc(C(=O)OCCN2CCCCC2)ccc1O,0.0129
8,CCCCn1ccc(=O)c2c(C(F)(F)F)nccc21,-0.0278
9,O=S(=O)(c1ccc(F)cc1)N1CC2CCCN2c2ccc(C(F)(F)F)cc21 (stereo not given),1.48
10,O=C(CCN1C(=O)C2C3C=CC(C4CC34)C2C1=O)Oc1cccc2cccnc12 (stereo not given),-1.21
11,O=C(Nc1ccc(S(=O)(=O)N2CCCC2)cc1)c1cccnc1,0.393
12,O=C(CSc1nc2nc(-c3cccs3)cc(C(F)(F)F)c2c(=O)[nH]1)NCc1ccco1,0.734
13,COc1ccc(C(=O)N2CCC(C(=O)O)CC2)cc1,-0.285
14,CC(C)(C)C1(C)OC(C(=O)NC2CCCCC2)C(C(=O)NC2CCCCC2)O1 (stereo not given),-0.111
15,c1ccc(Cc2nnc3sc(-c4cccs4)nn23)cc1,-0.714
16,N#Cc1nc(-c2ccc(OCc3ccccc3)cc2)oc1N1CCC(C(N)=O)CC1,1.72
17,Cc1nc([N+](=O)[O-])c(N2CCN(C)CC2)n1Cc1ccccc1,0.0875
18,Clc1ccc(-c2cc3ccccc3nc2N2CCCC2)cc1,0.195
19,Cc1cccc(NC(=O)c2ccc(-n3cccn3)c([N+](=O)[O-])c2)c1,-0.236
20,CC(=O)c1cn(C)c(=O)n(C)c1=O,0.4
21,O=C(Nc1cccc(Cl)c1)O/N=C\c1ccncc1,0.302
22,O=C(NCCc1ccccc1)C1CCCN(C(=O)NC2CCCCC2)C1 (stereo not given),-0.517

row,Structure (SMILES),z-score
1,Cc1c(C(=O)O)sc(=S)n1-c1ccccc1,-0.78
2,CC12C=CC3(CN(Cc4ccccc4)C(=O)C3C1C(=O)NCc1ccco1)O2 (stereo not given),0.605
3,O=c1c2c3c(sc2n(CCN2CCCCC2)c(=O)n1Cc1ccco1)CCCCC3,-0.542
4,O=C(Cc1ccccc1)N/N=C/c1ccc(Cl)cc1Cl,-0.358
5,CCOC(=O)c1ccc(-n2c(C)nc3c(cnn3-c3ccc(Cl)cc3)c2=O)cc1,-0.0713
6,Cc1nnc(SCc2ccc3c(c2)OCO3)s1,0.00689
7,Cc1ccc(-c2noc(/C=C/c3ccccc3)n2)cc1,-0.25
8,CC1=Nn2c(nnc2-c2ccccc2)SC1,0.393
9,COc1ccc(/C=C/c2cc(-c3ccc(C)cc3)o[n+]2C)cc1,-0.0315
10,Cc1ccc(-c2nc(SCC(=O)N(C)C3CCS(=O)(=O)C3)[nH]c2-c2ccc(C)cc2)cc1 (stereo not given),0.385
11,CCOc1ccc2c(c1)OC(c1ccc(OC)cc1)(C(F)(F)F)NC2=O (stereo not given),-0.269
12,Oc1ccc(Cl)cc1C1=NNC(c2ccc(Cl)cc2)C1 (stereo not given),0.535
13,CCOc1ccc(S(=O)(=O)N(CC(N)=O)c2ccc(C)cc2)cc1,0.0453
14,CC(=O)Nc1ccc(NC(=O)C(C)O/N=C/c2cccc([N+](=O)[O-])c2)cc1 (stereo not given),-0.151
15,O=C(N1CCCCCC1)n1c(Cc2ccccc2)nc2ccccc21,-0.169
16,COc1cc(C(N)=O)ccc1OCc1ccccc1,0.79
17,Cc1occc1-c1nnc(SCC(=O)N2CCCc3ccccc32)n1Cc1ccco1,0.137
18,CCN(CC)S(=O)(=O)c1cccc(-c2nnc(SCC(=O)NC3CCCC3)n2N)c1,0.127
19,O=C(Nc1ccc2c(c1)OCO2)c1cc2ncc(Br)cn2n1,0.218
20,CC1(C)CC2CC(C)(CN2C(=O)COc2cccc3ccccc23)C1 (stereo not given),0.21
21,N#Cc1nc(-c2cccc3ccccc23)oc1NCCN1CCOCC1,-0.831
22,O=C(NC(NC(=S)Nc1c(Cl)cc(Cl)cc1Cl)C(Cl)(Cl)Cl)OCc1ccccc1 (stereo not given),-0.119

row,Structure (SMILES),z-score
1,CCOC(=O)C1=C(C)N=C2SCCC(=O)N2C1c1ccc(C(=O)OC)cc1 (stereo not given),0.053
2,O=C(NCCc1ccncc1)c1ccccc1F,-0.0962
3,Oc1ccccc1C1=Nc2nc3ccccc3n2C(c2ccccc2)C1 (stereo not given),-1.59
4,CC(C)CC(NC(=O)C(CC(C)C)NC(=O)OC(C)(C)C)C(N)=O (stereo not given),0.314
5,Cc1ccc(C(C(=O)NC2CCCCC2)N(CC2CCCO2)C(=O)CNC(=O)c2cccs2)cc1 (stereo not given),-0.135
6,Cc1cc(/C=C2/SC(=O)NC2=O)c(C)n1-c1ccc(N2CCOCC2)cc1,-0.169
7,C=CCSc1nc2c(c(=N)n1CC=C)C1CCCC1S2 (stereo not given),-0.276
8,Cc1cc(C)nc(NC(=O)C(C)C)n1,-0.00451
9,O=C(CC(=O)c1cc(Cl)ccc1O)c1ccccc1,active: 3.32
10,O=S(=O)(c1cccs1)N1CN(Cc2ccc(F)cc2)c2nc3ccccc3nc21,-0.376
11,CCCCC(=O)NC(c1ccccc1Cl)c1c(O)ccc2ccccc12 (stereo not given),0.086
12,O=C(NC(=S)Nc1ccc2[nH]ncc2c1)c1ccccc1,-0.139
13,Cn1c(SCC(=O)N2CCCc3ccccc32)nnc1-c1ccccc1,-0.547
14,O=C(Nc1ccccn1)C12CC3CC(CC(C3)C1)C2,-0.292
15,N#Cc1cc([N+](=O)[O-])c(-n2nnc3ccccc32)c([N+](=O)[O-])c1,-0.082
16,COc1cc(NC(=O)c2c(F)c(F)c(F)c(F)c2F)c(OC)cc1Cl,-0.246
17,CCOC(=O)N1CCN(C(=O)C2CCN(S(=O)(=O)c3ccc(Cl)cc3)CC2)CC1,0.0191
18,CCOC(=O)CC12CN3CN(C1)CC(CC(=O)OCC)(C3)C2=O,-0.0089
19,CC(OC(=O)c1cc(S(=O)(=O)Nc2ccc(F)cc2)ccc1Cl)C(=O)Nc1ccc2c(c1)OCCO2 (stereo not given),-0.101
20,O=C(NCc1ccc(OC(F)(F)F)cc1)C1CC(c2ccccc2[N+](=O)[O-])=NO1 (stereo not given),-0.0635
21,N#Cc1c(-c2cccc(F)c2)cc(-c2ccccc2)nc1Br,-0.125
22,COc1ccc(C(=O)Cc2cnn(-c3ccccc3)c2)c(O)c1,-0.0429

row,Structure (SMILES),z-score
1,COc1ccc(C2=C/C(=C\c3cccc(OC(C)=O)c3)C(=O)O2)cc1,-1.6
2,CCOC(=O)N1CCN(C(=O)c2ccccc2Oc2ccccc2)CC1,-0.091
3,CCC(=O)c1ccc(OC(=O)c2cccs2)cc1,0.0687
4,Cc1cc(C(=O)OCC(=O)Nc2ccccc2F)c(C)o1,-0.195
5,O=C(NCc1ccco1)c1ccccc1NS(=O)(=O)c1ccc(Cl)s1,-1.14
6,CC(=O)Nc1ccc(S(=O)(=O)NNC(=O)COc2cccc(C)c2)cc1,-0.303
7,Cc1cc(F)c(F)c(C(=O)N2CCOCC2)c1Cl,0.284
8,CC(=O)Nc1ccc(S(=O)(=O)N2CCC(NC(=O)c3ccco3)CC2)cc1,0.0137
9,CCN(CC)CCCn1c(C)cc2c(c1=O)C(c1cccc(Cl)c1)C(C#N)=C(N)O2 (stereo not given),2.38
10,COCCCNC(=O)c1ccc(Cn2c(=O)c3ccccc3n(Cc3ccccc3C)c2=O)cc1,-1.76
11,CC(=O)NC(Cc1ccccc1)C(=O)NC1CCN(c2ncccc2[N+](=O)[O-])CC1 (stereo not given),1.6
12,CCc1nnc(NC(=O)C(=O)NCCOC(=O)c2ccccc2)s1,-0.014
13,O=C(CSc1ccccc1C(=O)NCc1ccccc1)NC1CCCCCCC1,-0.317
14,Cc1cccc(-n2c(Cc3cc(=O)[nH]c(=O)[nH]3)nnc2SCC(=O)N2CCCCC2)c1,-0.186
15,CCOC(=O)CN1C(=O)Nc2ccc(Br)cc2C1c1ccccc1 (stereo not given),-0.26
16,Cc1cc(=O)[nH]c(SCc2nnc(-c3ccccc3)o2)n1,-0.298
17,COc1ccc(/C=C/C(=O)c2cc(F)ccc2OC(=O)c2ccccc2C)cc1OC,-0.109
18,Cc1ccc(Nc2nnc(C3C(=O)N(C)C4(C)CC3c3cc(Br)ccc3O4)s2)cc1 (stereo not given),0.0607
19,CCC(=O)N1CCN(c2ccccc2NC(=O)COc2cccc(C)c2)CC1,active: 13
20,Cc1ccc(Nc2cc(C)nc(N3CCOCC3)n2)cc1,-0.644
21,CCOC(=O)c1ccc(Cl)c(NC(=O)c2ccc(-c3ccccc3)cc2)c1,0.494
22,CC(C)C(=O)Nc1ccc(C(=O)NCc2cccnc2)cc1,0.334

row,Structure (SMILES),z-score
1,CN1/C(=C\C=C(/C#N)C(=O)Nc2ccc(Cl)cc2)C(C)(C)c2ccccc21,-2.23
2,COC(=O)c1ccccc1NC(=O)CSc1nnnn1-c1ccc(C)cc1C,-0.571
3,Cc1nc2nc(SCC(=O)NCCN3CCOCC3)nn2c(C)c1Cc1ccccc1,0.727
4,O=C(Nc1ccc(Cl)cc1)c1cc(S(=O)(=O)N2CCOCC2)cs1,-0.483
5,O=C(OCn1ncc(Cl)c(Cl)c1=O)c1ccc(F)cc1,-0.856
6,CC(C)(C)n1nnnc1C(c1cccs1)N(Cc1cccnc1)CC1CCCO1 (stereo not given),-0.58
7,C=CCN1/C(=C(\C#N)C2=NS(=O)(=O)c3ccccc32)N(C)c2ccccc21,-0.188
8,CCOC(=O)c1ccc(-c2cccc(C(F)(F)F)c2)nc1C,0.158
9,OC(COCc1ccc2c(c1)OCO2)CN1CCN(Cc2ccccc2)CC1 (stereo not given),-0.00855
10,CC(C)C(=O)NC(=S)Nc1ccccc1C(F)(F)F,0.0217
11,Cc1ccc(S(=O)(=O)N(CC(=O)N=Nc2c(O)[nH]c3ccccc23)c2cccc(C)c2)cc1,1.16
12,c1csc(CNCCCN2CCOCC2)c1,0.0584
13,COC(=O)c1cccc(C(=O)Nc2cnc3ccccc3c2)n1,0.355
14,Cc1ccc(S(=O)(=O)N2c3cc(C)ccc3OCC2C(C)(C)C)cc1 (stereo not given),-0.132
15,CCCCNC(=O)C(NS(=O)(=O)c1cccc2nsnc12)c1ccccc1 (stereo not given),0.117
16,CCC(=O)Nc1ccc(-c2nn3c(C)nnc3s2)cc1,0.282
17,S=C(c1ccccc1)N1CCCc2ccccc21,-0.863
18,CCC(=O)Nc1ccc(S(=O)(=O)Nc2ccc(Cl)nn2)cc1,-0.125
19,Cc1ccc(/C=N/NC(=S)NC(C)C)o1,-0.11
20,Cc1c(C(=O)NC(C)c2ccccc2)c(-c2ccccc2)nn1-c1ccccc1 (stereo not given),0.203
21,COC(=O)CCS(=O)(=O)c1ccc(NC(C)=O)cc1,0.191
22,COc1cc(C(=O)NCCCNc2ccc([N+](=O)[O-])cc2)cc(OC)c1OC,0.339
